Some of the results follow.
T1: UNK ZnF1-6 (called full-length) (human, UniProt Q9C0B0 30-357)
T1 sequence: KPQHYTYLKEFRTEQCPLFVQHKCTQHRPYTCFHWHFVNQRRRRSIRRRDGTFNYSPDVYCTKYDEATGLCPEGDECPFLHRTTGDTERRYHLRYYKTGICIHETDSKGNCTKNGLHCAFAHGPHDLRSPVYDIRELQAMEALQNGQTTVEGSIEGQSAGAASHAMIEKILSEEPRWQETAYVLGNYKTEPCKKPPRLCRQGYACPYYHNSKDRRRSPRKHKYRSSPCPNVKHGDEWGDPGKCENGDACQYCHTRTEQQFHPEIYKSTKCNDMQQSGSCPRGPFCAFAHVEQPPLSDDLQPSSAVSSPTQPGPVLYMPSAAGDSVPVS

B1: chrX:154436128:154436291:+|3pUTR|ENSG00000071553|msi1_unk|FALSE|overlapping (ssRNA)
RNA: GGGAGUUCUACAGUCCGACGAUCAUUCUAGGGUCUCCUUUCUCCUUAUUUAUUCUUGUGGCUACAUCAUCCCUGGCUGUGGAUAGUGCUUUUGUGUAGCAAAUGCUCCCUCCUUAAGGUUAUAGGGCUCCCUGAGUUUGGGAGCAACAGAGGAUUGAGCAUCA
B2: chr5:137939581:137939637:-|3pUTR|ENSG00000031003|msi1_unk|FALSE|overlapping (ssRNA)
RNA: GGGAGUUCUACAGUCCGACGAUCUGUUAGUAAAAUUUUGCAAUUCGCUGGUCACACAGCUCCCGGAUGAAGAUAACAGUUGGUAGACCAAAAGGUGACCUCGCUUAGUAUAUUGAAAACACACACCACACAUCACACACAGAACAACAGAGGAUUGAGCAUCA
B3: chr2:54972555:54972835:-|3pUTR|ENSG00000115310|msi1_unk|total|mutant (ssRNA)
RNA: GGGAGUUCUACAGUCCGACGAUCUGUGCACUGUGUAUGGUCCGUGCCGAUUGAUGCAGAUUUUCUGAAAUGAAAUGUUUGUUCCGACGAGAUCAUACCGGUAAAGCAGGAAUGACAAAGCUUGCUUUUCUGGUAUGUUCCCGGCAACAGAGGAUUGAGCAUCA
B4: chr3:160432293:160432405:+|CDS|ENSG00000113810|unk|FALSE|bound_elsewhere (ssRNA)
RNA: GGGAGUUCUACAGUCCGACGAUCGAAUUGUAUUUGCAACGGGUAGCAGAAUUGGACAAAAUUACUUAUGAAAGAGACAGUUUUAGACAGGCAUAUGAAGAUCUUCGGAAACAAAGGCUUAAUGAAUUUAUGGCAGGUUUUUAUCAACAGAGGAUUGAGCAUCA
B5: chr1:235808650:235808751:-|CDS|ENSG00000143669|unk|total|mutant (ssRNA)
RNA: GGGAGUUCUACAGUCCGACGAUCUGGAAAUGGGAUGCUUUAAAGGCUUAUCAGAACUUUGUUUUUGAAGAAGACAGAUUACACCGUAUACAGAUUGCAAAUCACAUUUGCAAUUUAAUCCAGAAAGGCAAUACCGUUGUUCAGCAACAGAGGAUUGAGCAUCA
B6: chr7:107202531:107202632:-|3pUTR|ENSG00000164597|msi1|FALSE|unique (ssRNA)
RNA: GGGAGUUCUACAGUCCGACGAUCUAUUCUGAGAACUCAUAAAUAAAAUUCAGCCAAGAUUAAUCAAUCAAUCAAUCAAUCAGUAGACGUCAGAGAUAAGCAACUUUUUUUUCCAUUUAUUUGAAAUAAUAUACAAGAAUAUAGCAACAGAGGAUUGAGCAUCA
B7: chr1:225494445:225494546:-|3pUTR|ENSG00000154380|msi1|FALSE|unique (ssRNA)
RNA: GGGAGUUCUACAGUCCGACGAUCUUGGGUGUUCCCUCUUCUUAUUUUCUCUCUGCCCACCUUGACACAGUAACUUCCUCUUAUAGUCAAGAUGAUGAUUAAGUGUUUAAUUUUUAUUCCAUUUUGUUCUGCAACACGUUCAGGCAACAGAGGAUUGAGCAUCA
B8: chr1:93152962:93153063:-|3pUTR|ENSG00000117500|msi1|FALSE|bound_elsewhere (ssRNA)
RNA: GGGAGUUCUACAGUCCGACGAUCGCUGGAAUUCUUGAUGAGCAAUAAUGAUAACCAGAGAGUGAUUUCAUUUACACUCAUAGUAGUAUAAAAAGAGAUACAUUUCCCUCUUAGGCCCCUGGGAGAAGAGCAGCUUAGAUUUCCCAACAGAGGAUUGAGCAUCA
B9: chr7:38725943:38726055:-|3pUTR|ENSG00000006715|unk|total|mutant (ssRNA)
RNA: GGGAGUUCUACAGUCCGACGAUCGAAAUUUUGGGGUCCACCGUGAAUAUUUUGUUAUUUAUUUGUUUGGCUCAUUCUUUAUACCGUAAUGGAAACAUAAGUCCCGGAGUCCGAAAUGAAUUUUUCCGACCUCCGUAAAACCAUCAACAGAGGAUUGAGCAUCA
B10: chr10:73251842:73251943:-|CDS|ENSG00000182180|msi1|FALSE|unique (ssRNA)
RNA: GGGAGUUCUACAGUCCGACGAUCUCGGCCGUUCUACCGCAUUGUGGCUGCUCACAACAAGUGUCCCAGGGAUGGCCGUUUCGUAGAGCAGCUGGGCUCCUAUGAUCCAUUGCCCAACAGUCAUGGAGAAAAACUCGUUGCCCUCAACAGAGGAUUGAGCAUCA
B11: chr8:124550783:124552991:-|three_prime_utr|ENSG00000170873|control|control|control (ssRNA)
RNA: GGGAGUUCUACAGUCCGACGAUCAUUAAUAAAACCUAAUUUGUCUUGAUCCAUUCCACUCUAUAAUAAAACAAAAGAUUUUGUAGGCAACUCGGAAUAUAGCUCUUUUGAAAGUACUCGACACCUUUAGAUAAGAAUUAAAACCAACAGAGGAUUGAGCAUCA
B12: chr15:100649042:100649144:+|3pUTR|ENSG00000183475|unk|total|mutant (ssRNA)
RNA: GGGAGUUCUACAGUCCGACGAUCUACCUCUGCUUUUCUUUUGCUGUGCUCUUGUUUUUAACUUAUUUUUUUUUUAACAACUGCCGUACACUACCCUGAGACACUGCAUCUCGAUUUCUAUCUCCCGUCCGAGUUGUACUUUUACAACAGAGGAUUGAGCAUCA
B13: chr4:56502255:56502306:+|3pUTR|ENSG00000174780|msi1_unk|total|mutant (ssRNA)
RNA: GGGAGUUCUACAGUCCGACGAUCAUUUCAGCUGGAGUCUGAAGAUACUUGUUUCUGUUCAAGUCCCACUUUAAAUUAUGUCUCCGGAGACUGAAAGUGGAAUCUUCUGAGCAUUCCUAAAUAUCUGCUCCGAAAUAUCAUGUGCAACAGAGGAUUGAGCAUCA
B14: chr6:133987709:133987810:+|3pUTR|ENSG00000028839|unk|total|mutant (ssRNA)
RNA: GGGAGUUCUACAGUCCGACGAUCAAUAACAAACCGGAAUUUUUUUUCUUGCAGAUCCGAAAUAAAAACGUGUAUAUAAACUCCCGGGAACCAGACCCGAAGUUUACCGAUAAAGGAUAAUGUUUUAUGUUGCUAAUUUAAUAUCAACAGAGGAUUGAGCAUCA

Target: T1, UNK ZnF1-6 (called full-length)
Assay: nsRBNS (natural sequence RNA bind-n-seq); RBNS binding buffer (assumed for nsRBNS): 25 mM Tris pH 7.5, 150 mM KCl, 3 mM MgCl2, 0.01% Triton X-100, 500 ug/ml BSA, 20 U/ml SUPERase-In, 4 C; UNK is unkempt and MSI1 is Musashi-1; names of the RNAs are library labels; protein concentration not given here; high values mean tight binding

Binder | binding signal [enrichment R]
B1 | 1.65
B2 | 6.92
B3 | 0.329
B4 | 0.887
B5 | 0.401
B6 | 2.67
B7 | 0.807
B8 | 1.87
B9 | 0.419
B10 | 0.505
B11 | 4.28
B12 | 2.04
B13 | 0.416
B14 | 0.562

Reference: article PMC12136788
